In the supplement of paper PMC12217912:
This is one part of the list. Sequences were assembled here from the parent chain. Values near 0.05 are background.

B1: TEV protease; numbered along this chain (parent)
chain: MGESLFKGPRDYNPISSSICHLTNESDGHTTSLYGIGFGPFIITNKHLFRRNNGTLVVQSLHGVFKVKDTTTLQQHLVDGRDMIIIRMPKDFPPFPQKLKFREPQREERICLVTTNFQTKSMSSMVSDTSCTFPSGDGIFWKHWIQTKDGQCGSPLVSTRDGFIVGIHSASNFTNTNNYFTSVPKNFMELLTNQEAQQWVSGWRLNADSVLWGGHKVFMVKPEEPFQPVKEATQL

Variants of: B1
Assay: raw area under fraction-flipped curve 0-4 h after induction (AUC4h, not background-subtracted), DNA-recorder readout of cleavage of the substrate (dimensionless); higher = more cleavage of the substrate by the protease variant
Details: temperature: 34 °C; time window: 0-4 h after rhamnose induction
Experimental: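 In vivo DNA recorder in E. coli TOP10(DE3) ΔrhaA at 34 °C. Each TEVp single-site mutant (parent TEVp 0) is paired with a single-site variant of the 7-mer TEVs (canonical ENLYFQ|S). The substrate sits between flexible linkers in a Bxb1-sfGFP-TEVs-SsrA fusion, so cleavage stabilises Bxb1 and speeds flipping of a recombination array, read by NGS. The value is the raw area under the fraction-flipped curve over 0-4 h after rhamnose induction (AUC4h), with ≥20 reads per time point. It is not background-subtracted; inactive controls average about 0.047.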
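Further: Bxb1 expression induced with 0.2% (w/v) L-rhamnose at OD600 near 0.5, cultures sampled hourly, flipped fraction per protease–substrate barcode pair counted by paired-end Illumina sequencing.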

| Variant | area with substrate ENLYFCS | area with substrate ENLYFDS | area with substrate ENLYFES | area with substrate ENLYFFS | area with substrate ENLYFGS | area with substrate ENLYFIS | area with substrate ENLYFLS | area with substrate ENLYFMS | area with substrate ENLYFNS | area with substrate ENLYFPS | area with substrate ENLYFRS | area with substrate ENLYFTS | area with substrate ENLYFVS | area with substrate ENLYFWS | area with substrate ENLYFYS | area with substrate ENLYFHS | area with substrate ENLYFKS | area with substrate ENLYFSS |
| --- | --- | --- | --- | --- | --- | --- | --- | --- | --- | --- | --- | --- | --- | --- | --- | --- | --- | --- |
| MGESLFKGPRDYNPISSSICHLTNESDGHTKSLYGIGFGPFIITNKHLFRRNNGTLVVQSLHGVFKVKDTTTLQQHLVDGRDMIIIRMPKDFPPFPQKLKFREPQREERICLVTTNFQTKSMSSMVSDTSCTFPSGDGIFWKHWIQTKDGQCGSPLVSTRDGFIVGIHSASNFTNTNNYFTSVPKNFMELLTNQEAQQWVSGWRLNADSVLWGGHKVFMVKPEEPFQPVKEATQL [T31K] | 0.0598 | 0.0483 | 0.0701 | 0.0636 | 0.0586 | 0.0489 | 0.0654 | 0.0552 | 0.0437 | 0.0472 | 0.0567 | 0.056 | 0.0539 | 0.0684 | 0.0739 |  |  |  |
| MGESLFKGPRDYNPISSSICHLTNESDGHTTSLYGQGFGPFIITNKHLFRRNNGTLVVQSLHGVFKVKDTTTLQQHLVDGRDMIIIRMPKDFPPFPQKLKFREPQREERICLVTTNFQTKSMSSMVSDTSCTFPSGDGIFWKHWIQTKDGQCGSPLVSTRDGFIVGIHSASNFTNTNNYFTSVPKNFMELLTNQEAQQWVSGWRLNADSVLWGGHKVFMVKPEEPFQPVKEATQL [I36Q] | 0.0424 | 0.0481 | 0.0618 | 0.0628 | 0.0308 | 0.0643 |  | 0.0402 | 0.0727 | 0.0506 | 0.0512 |  |  |  |  | 0.0422 | 0.0534 | 0.0556 |
| MGESLFKGPRDYNPISSSICHLTNESDGHTTSLYGIGFHPFIITNKHLFRRNNGTLVVQSLHGVFKVKDTTTLQQHLVDGRDMIIIRMPKDFPPFPQKLKFREPQREERICLVTTNFQTKSMSSMVSDTSCTFPSGDGIFWKHWIQTKDGQCGSPLVSTRDGFIVGIHSASNFTNTNNYFTSVPKNFMELLTNQEAQQWVSGWRLNADSVLWGGHKVFMVKPEEPFQPVKEATQL [G39H] | 0.0382 |  | 0.0575 | 0.0704 | 0.03 | 0.0436 | 0.0349 |  | 0.0314 | 0.0392 | 0.0461 | 0.0398 |  |  | 0.038 | 0.0533 | 0.0481 | 0.0482 |
| MGESLFKGPRDYNPISSSICHLTNESDGHTTSLYGIGFTPFIITNKHLFRRNNGTLVVQSLHGVFKVKDTTTLQQHLVDGRDMIIIRMPKDFPPFPQKLKFREPQREERICLVTTNFQTKSMSSMVSDTSCTFPSGDGIFWKHWIQTKDGQCGSPLVSTRDGFIVGIHSASNFTNTNNYFTSVPKNFMELLTNQEAQQWVSGWRLNADSVLWGGHKVFMVKPEEPFQPVKEATQL [G39T] | 0.044 |  | 0.0409 | 0.0645 | 0.0465 | 0.0396 |  | 0.0254 |  |  | 0.0557 |  | 0.0274 | 0.0426 |  |  |  | 0.0444 |
